Data reported in article PMC9911399, “Two distinct binding modes provide the RNA-binding protein RbFox with extraordinary sequence specificity”.
Changes are numbered by the printed parent chain; changes in the protein carry UniProt numbers. This is one part of the list.

B1: CGGGUGU (DNA:RNA)
RNA: GGGAGACCGGAAUUCAGAUUGUCCCGGGUGUUUAAAUCCCGUCGUAGCCACCA
DNA 1: CAATCTGAATTCCGGTCTCCC
DNA 2: TGGTGGCTACGACGGGATT
B2: CGUACGA (DNA:RNA)
RNA: B1 RNA with G27U, G28A, U29C, U31A
DNA 1: CAATCTGAATTCCGGTCTCCC
DNA 2: TGGTGGCTACGACGGGATT
B3: AACGUGA (DNA:RNA)
RNA: B1 RNA with C25A, G26A, G27C, U31A
DNA 1: CAATCTGAATTCCGGTCTCCC
DNA 2: TGGTGGCTACGACGGGATT
B4: AAUCUGU (DNA:RNA)
RNA: B1 RNA with C25A, G26A, G27U, G28C
DNA 1: CAATCTGAATTCCGGTCTCCC
DNA 2: TGGTGGCTACGACGGGATT
B5: AGCCGCC (DNA:RNA)
RNA: B1 RNA with C25A, G27C, G28C, U29G, G30C, U31C
DNA 1: CAATCTGAATTCCGGTCTCCC
DNA 2: TGGTGGCTACGACGGGATT
B6: CAGGGUA (DNA:RNA)
RNA: B1 RNA with G26A, U29G, G30U, U31A
DNA 1: CAATCTGAATTCCGGTCTCCC
DNA 2: TGGTGGCTACGACGGGATT
B7: CAAAUAA (DNA:RNA)
RNA: B1 RNA with G26A, G27A, G28A, G30A, U31A
DNA 1: CAATCTGAATTCCGGTCTCCC
DNA 2: TGGTGGCTACGACGGGATT
B8: GCGACCU (DNA:RNA)
RNA: B1 RNA with C25G, G26C, G28A, U29C, G30C
DNA 1: CAATCTGAATTCCGGTCTCCC
DNA 2: TGGTGGCTACGACGGGATT
B9: GGAUAUC (DNA:RNA)
RNA: B1 RNA with C25G, G27A, G28U, U29A, G30U, U31C
DNA 1: CAATCTGAATTCCGGTCTCCC
DNA 2: TGGTGGCTACGACGGGATT
B10: GACCCUA (DNA:RNA)
RNA: GGGAGACCGGAAUUCAGAUUGUCCGACCCUAUUAAAUCCCGUCGUAGCCACCA
DNA 1: CAATCTGAATTCCGGTCTCCC
DNA 2: TGGTGGCTACGACGGGATT
B11: GCAUAGU (DNA:RNA)
RNA: B1 RNA with C25G, G26C, G27A, G28U, U29A
DNA 1: CAATCTGAATTCCGGTCTCCC
DNA 2: TGGTGGCTACGACGGGATT
B12: UUGGAAA (DNA:RNA)
RNA: B1 RNA with C25U, G26U, U29A, G30A, U31A
DNA 1: CAATCTGAATTCCGGTCTCCC
DNA 2: TGGTGGCTACGACGGGATT
B13: CAGAUUU (DNA:RNA)
RNA: B1 RNA with G26A, G28A, G30U
DNA 1: CAATCTGAATTCCGGTCTCCC
DNA 2: TGGTGGCTACGACGGGATT
B14: AUCUAUC (DNA:RNA)
RNA: B10 RNA with G25A, A26U, C28U, C29A, A31C
DNA 1: CAATCTGAATTCCGGTCTCCC
DNA 2: TGGTGGCTACGACGGGATT
B15: UCGCCCU (DNA:RNA)
RNA: B1 RNA with C25U, G26C, G28C, U29C, G30C
DNA 1: CAATCTGAATTCCGGTCTCCC
DNA 2: TGGTGGCTACGACGGGATT
B16: UCGCGUA (DNA:RNA)
RNA: B10 RNA with G25U, A26C, C27G, C29G
DNA 1: CAATCTGAATTCCGGTCTCCC
DNA 2: TGGTGGCTACGACGGGATT
B17: ACAUCGU (DNA:RNA)
RNA: B1 RNA with C25A, G26C, G27A, G28U, U29C
DNA 1: CAATCTGAATTCCGGTCTCCC
DNA 2: TGGTGGCTACGACGGGATT
B18: CGAAUGC (DNA:RNA)
RNA: B1 RNA with G27A, G28A, U31C
DNA 1: CAATCTGAATTCCGGTCTCCC
DNA 2: TGGTGGCTACGACGGGATT
B19: UCGAUCU (DNA:RNA)
RNA: B1 RNA with C25U, G26C, G28A, G30C
DNA 1: CAATCTGAATTCCGGTCTCCC
DNA 2: TGGTGGCTACGACGGGATT
B20: CCUUAUU (DNA:RNA)
RNA: B1 RNA with G26C, G27U, G28U, U29A, G30U
DNA 1: CAATCTGAATTCCGGTCTCCC
DNA 2: TGGTGGCTACGACGGGATT

What follows are binders tested against T1, RBFOX1 RRM (Homo sapiens, UniProt Q9NWB1 109-208) (assay: EMSA; HiTS-Eq, 1 nM pool, 10 min; buffer printed only for the single-RNA assays: 10 mM Tris pH 7.5, 150 mM NaCl, 3.4 mM EDTA, 0.001% NP-40, 30 C). Details: tags: His6 N-terminal (pET28a); label: 5' 32P.
T1 sequence: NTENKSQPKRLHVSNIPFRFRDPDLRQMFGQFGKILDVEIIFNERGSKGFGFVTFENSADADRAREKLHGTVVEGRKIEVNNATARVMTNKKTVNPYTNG
Outline: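 Purified wild-type or mutant RbFox RRM at increasing concentrations was equilibrated with 1 nM of 5′-radiolabelled RNA carrying 7 randomized nucleotides for 10 min in 50 µL. Unbound RNA was separated by 8% native PAGE and sequenced. Relative association constants came from read-count changes of each RNA species compared with the control reaction, normalised to the cognate motif.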

Row | Binder | binding signal
1 | B1 | 0.0321 KA relative to UGCAUGU
2 | B2 | 0.00639 KA relative to UGCAUGU
3 | B3 | 0.00848 KA relative to UGCAUGU
4 | B4 | 0.00722 KA relative to UGCAUGU
5 | B5 | 0.00446 KA relative to UGCAUGU
6 | B6 | 0.0125 KA relative to UGCAUGU
7 | B7 | 0.00109 KA relative to UGCAUGU
8 | B8 | 0.0112 KA relative to UGCAUGU
9 | B9 | 0.014 KA relative to UGCAUGU
10 | B10 | 0.00243 KA relative to UGCAUGU
11 | B11 | 0.0104 KA relative to UGCAUGU
12 | B12 | 0.0106 KA relative to UGCAUGU
13 | B13 | 0.00643 KA relative to UGCAUGU
14 | B14 | 0.00278 KA relative to UGCAUGU
15 | B15 | 0.00703 KA relative to UGCAUGU
16 | B16 | 0.0087 KA relative to UGCAUGU
17 | B17 | 0.00239 KA relative to UGCAUGU
18 | B18 | 0.0214 KA relative to UGCAUGU
19 | B19 | 0.0103 KA relative to UGCAUGU
20 | B20 | 0.00471 KA relative to UGCAUGU
